Experimental data published in patent publication US20080124340A1.

Experiments:
[1] = molecular target: human erythropoietin receptor (huEpoR), cell surface expressed (human) (UniProt P19235); assay: cell-based or functional assay
[2] = molecular target: cynomolgus monkey EpoR (cynoEpoR) (cynomolgus monkey); assay: SPR, Biacore T100; scFv-Fc captured by anti-human IgG Fc on CM5 chip, EpoR as analyte
[3] = molecular target: T1, soluble human erythropoietin receptor protein (huEpoR) (human) (UniProt P19235); assay: as above
T1 sequence (looked up): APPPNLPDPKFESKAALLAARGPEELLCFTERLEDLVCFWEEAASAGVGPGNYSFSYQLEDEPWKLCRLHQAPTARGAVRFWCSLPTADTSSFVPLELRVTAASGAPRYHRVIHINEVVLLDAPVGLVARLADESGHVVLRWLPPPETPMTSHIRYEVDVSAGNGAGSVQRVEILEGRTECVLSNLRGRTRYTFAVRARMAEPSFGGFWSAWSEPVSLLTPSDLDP

B1: clone 29 scFv-Fc protein (Fc fusion, part only; not given: scFv linker and IgG1 Fc, not shown: a dimerising Fc or GST)
scFv, part: [letters of about 100 residues omitted]GGHMTTVTRDAFDIWGQGTMVTVSASSELTQDPAVSVALGQTIRITCQGDSLRYYYATWYQQKPGQAPILVIYGQNNRPSGVPDRFSGSSSGNTASLTITGAQAEDEADYYCGTWDSSVSASWVFGGGTKVTVL
Q: Which Average EC50, UT-7-luciferase assay [1] does the source give for B1 here?
A: 1.52 nM

Q: What about the Kd [2] of the same binder?
A: 265 nM

Q: And the koff [2]?
A: 0.0504 s⁻¹

Q: And the kon [2]?
A: 190000 M⁻¹ s⁻¹

Q: What about the Kd [3] of the same binder?
A: 487 nM

Q: And the koff [3]?
A: 0.0629 s⁻¹

Q: And the kon [3]?
A: 129000 M⁻¹ s⁻¹
